Measured values taken from paper PMC6360386.
Numbering of substitutions follows the chain as printed. These are yes or no findings as the source states them, for the method shown. In cells and extracts the contact can be indirect. Some entries that bind do so weakly or less than the wild type. Where a sequence is shown, tags or fusion partners need not be part of it.

Sequences of proteins named here, by UniProt entry; tags and fusion partners are left off.
UniProt Q05397: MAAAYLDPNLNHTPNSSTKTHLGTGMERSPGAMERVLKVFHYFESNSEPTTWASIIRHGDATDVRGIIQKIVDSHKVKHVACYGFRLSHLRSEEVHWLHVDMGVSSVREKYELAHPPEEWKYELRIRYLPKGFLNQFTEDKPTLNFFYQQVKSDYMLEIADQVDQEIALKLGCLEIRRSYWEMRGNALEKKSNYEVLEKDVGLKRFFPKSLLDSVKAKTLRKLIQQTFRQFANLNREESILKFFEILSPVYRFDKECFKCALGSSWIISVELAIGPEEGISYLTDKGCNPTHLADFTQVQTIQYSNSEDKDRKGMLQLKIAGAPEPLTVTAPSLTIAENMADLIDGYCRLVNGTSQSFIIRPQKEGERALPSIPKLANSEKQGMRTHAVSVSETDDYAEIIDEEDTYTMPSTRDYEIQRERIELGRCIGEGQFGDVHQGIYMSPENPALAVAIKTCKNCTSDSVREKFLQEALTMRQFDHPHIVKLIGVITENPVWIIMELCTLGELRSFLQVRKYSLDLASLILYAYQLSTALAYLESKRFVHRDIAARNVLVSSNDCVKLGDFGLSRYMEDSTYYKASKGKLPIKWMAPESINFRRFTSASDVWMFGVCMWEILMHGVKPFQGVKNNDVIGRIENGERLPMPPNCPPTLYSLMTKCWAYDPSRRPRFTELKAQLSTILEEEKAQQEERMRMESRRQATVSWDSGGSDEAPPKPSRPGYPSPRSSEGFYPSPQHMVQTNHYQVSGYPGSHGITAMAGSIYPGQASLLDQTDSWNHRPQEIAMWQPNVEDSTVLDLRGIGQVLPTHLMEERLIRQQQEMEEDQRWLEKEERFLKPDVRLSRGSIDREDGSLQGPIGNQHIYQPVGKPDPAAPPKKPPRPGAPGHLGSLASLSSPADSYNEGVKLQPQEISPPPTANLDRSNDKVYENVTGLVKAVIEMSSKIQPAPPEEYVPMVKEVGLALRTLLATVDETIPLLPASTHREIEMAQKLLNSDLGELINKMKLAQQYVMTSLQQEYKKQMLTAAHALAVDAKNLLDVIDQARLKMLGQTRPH
UniProt Q8K045: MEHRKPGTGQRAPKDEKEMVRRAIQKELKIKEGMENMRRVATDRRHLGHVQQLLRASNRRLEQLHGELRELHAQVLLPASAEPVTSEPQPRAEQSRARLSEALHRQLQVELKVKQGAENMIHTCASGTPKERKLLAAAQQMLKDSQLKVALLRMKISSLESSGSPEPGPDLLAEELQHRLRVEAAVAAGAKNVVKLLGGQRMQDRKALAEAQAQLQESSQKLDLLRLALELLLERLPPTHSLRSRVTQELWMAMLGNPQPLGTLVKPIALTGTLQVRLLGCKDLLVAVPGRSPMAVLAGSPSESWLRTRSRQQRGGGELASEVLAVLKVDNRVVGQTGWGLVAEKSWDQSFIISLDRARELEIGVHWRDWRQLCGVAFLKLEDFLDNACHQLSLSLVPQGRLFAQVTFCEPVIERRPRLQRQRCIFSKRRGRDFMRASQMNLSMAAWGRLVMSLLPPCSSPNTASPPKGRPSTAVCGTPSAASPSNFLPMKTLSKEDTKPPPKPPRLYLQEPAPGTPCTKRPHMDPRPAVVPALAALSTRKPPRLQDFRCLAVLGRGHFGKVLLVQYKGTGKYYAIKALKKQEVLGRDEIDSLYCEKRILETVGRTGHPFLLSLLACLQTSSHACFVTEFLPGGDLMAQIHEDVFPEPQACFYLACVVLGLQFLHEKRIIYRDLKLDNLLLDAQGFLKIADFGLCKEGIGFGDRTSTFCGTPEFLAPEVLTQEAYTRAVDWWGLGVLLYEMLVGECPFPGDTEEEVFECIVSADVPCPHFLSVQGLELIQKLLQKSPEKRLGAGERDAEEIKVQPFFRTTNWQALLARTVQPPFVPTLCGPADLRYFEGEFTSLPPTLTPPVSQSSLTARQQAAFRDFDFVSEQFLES
UniProt Q6P5Z2: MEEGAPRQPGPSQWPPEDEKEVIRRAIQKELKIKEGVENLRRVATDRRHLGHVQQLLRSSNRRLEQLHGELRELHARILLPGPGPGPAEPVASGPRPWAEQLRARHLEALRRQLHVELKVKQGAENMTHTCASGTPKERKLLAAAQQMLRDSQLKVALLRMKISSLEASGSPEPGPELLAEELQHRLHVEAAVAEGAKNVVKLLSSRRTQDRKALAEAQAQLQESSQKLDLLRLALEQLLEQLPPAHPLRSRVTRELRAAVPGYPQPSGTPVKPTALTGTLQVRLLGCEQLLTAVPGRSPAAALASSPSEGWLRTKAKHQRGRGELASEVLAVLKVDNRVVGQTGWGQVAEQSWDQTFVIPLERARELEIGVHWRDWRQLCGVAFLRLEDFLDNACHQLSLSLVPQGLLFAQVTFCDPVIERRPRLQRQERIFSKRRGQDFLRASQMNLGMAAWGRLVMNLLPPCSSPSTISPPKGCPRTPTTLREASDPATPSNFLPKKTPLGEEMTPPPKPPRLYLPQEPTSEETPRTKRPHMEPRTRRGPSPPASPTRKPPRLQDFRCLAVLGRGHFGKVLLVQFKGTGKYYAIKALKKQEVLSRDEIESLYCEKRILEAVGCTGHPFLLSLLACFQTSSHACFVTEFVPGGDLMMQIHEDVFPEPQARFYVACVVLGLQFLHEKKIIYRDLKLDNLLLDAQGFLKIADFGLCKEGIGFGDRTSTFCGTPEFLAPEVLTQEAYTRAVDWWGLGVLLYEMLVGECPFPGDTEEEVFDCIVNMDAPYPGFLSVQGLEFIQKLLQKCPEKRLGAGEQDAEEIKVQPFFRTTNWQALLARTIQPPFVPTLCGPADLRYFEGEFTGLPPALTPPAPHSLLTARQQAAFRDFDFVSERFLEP

How the values were obtained:
[1] = target: T1, GFP-p130Cas WT (mouse, full-length) (mouse) (UniProt Q61140); experiment: co-IP; MDA-MB-231 cells transiently transfected with mouse GFP-p130Cas variants; immunoprecipitation with anti-GFP antibody; blots with anti-PKN3 and anti-FAK; 1% Triton lysis buffer
T1 sequence: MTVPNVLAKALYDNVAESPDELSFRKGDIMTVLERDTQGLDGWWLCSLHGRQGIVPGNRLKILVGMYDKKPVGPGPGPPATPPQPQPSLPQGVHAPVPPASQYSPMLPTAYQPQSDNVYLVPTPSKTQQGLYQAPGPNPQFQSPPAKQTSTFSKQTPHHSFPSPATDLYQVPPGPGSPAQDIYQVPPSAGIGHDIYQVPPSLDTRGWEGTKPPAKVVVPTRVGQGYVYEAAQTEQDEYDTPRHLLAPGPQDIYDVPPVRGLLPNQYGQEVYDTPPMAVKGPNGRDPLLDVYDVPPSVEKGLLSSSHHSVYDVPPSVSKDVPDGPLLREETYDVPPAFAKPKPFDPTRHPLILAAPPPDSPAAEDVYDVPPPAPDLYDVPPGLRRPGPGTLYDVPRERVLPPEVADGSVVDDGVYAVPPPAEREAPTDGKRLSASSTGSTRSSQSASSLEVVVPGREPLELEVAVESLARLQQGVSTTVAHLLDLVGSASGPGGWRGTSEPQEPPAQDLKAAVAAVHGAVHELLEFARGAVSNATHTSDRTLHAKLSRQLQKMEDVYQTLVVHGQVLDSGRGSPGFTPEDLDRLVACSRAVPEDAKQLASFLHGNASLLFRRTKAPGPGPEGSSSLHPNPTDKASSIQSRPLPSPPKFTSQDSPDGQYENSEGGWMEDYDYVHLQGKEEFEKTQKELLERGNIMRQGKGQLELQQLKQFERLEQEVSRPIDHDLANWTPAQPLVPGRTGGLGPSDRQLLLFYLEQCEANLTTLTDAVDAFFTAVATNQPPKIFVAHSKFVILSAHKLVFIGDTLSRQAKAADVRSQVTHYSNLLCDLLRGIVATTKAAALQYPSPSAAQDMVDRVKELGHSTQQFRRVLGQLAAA

[2] = target: T2, GST-fused p130Cas SH3 domain WT (mouse) (UniProt Q61140); experiment: pull-down; purified GST-fused p130Cas SH3 variants as bait, lysates of MEFs expressing Flag-PKN3 variants; 1% Triton lysis buffer (50 mM Tris/HCl pH 7.1, 150 mM NaCl, 1% Triton X-100); anti-Flag immunoblot, bound PKN3 quantified relative to Flag-PKN3 WT; only the target purified
T2 sequence: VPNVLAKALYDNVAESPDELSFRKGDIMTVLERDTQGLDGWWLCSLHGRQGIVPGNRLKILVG

[3] = target: T3, GFP-p130Cas Y12E (mouse, full-length) (mouse) (UniProt Q61140); experiment: co-IP; MDA-MB-231 cells transiently transfected with mouse GFP-p130Cas variants; immunoprecipitation with anti-GFP antibody; blots with anti-PKN3 and anti-FAK; 1% Triton lysis buffer
T3 sequence: T1 sequence with Y12E

[4] = target: T4, GFP-p130Cas Y12F (mouse, full-length) (mouse) (UniProt Q61140); experiment: as above
T4 sequence: T1 sequence with Y12F

| binding [1] | binding [2] | binding [3] | binding [4] | Substance |
| --- | --- | --- | --- | --- |
| binds | – | – | – | FAK, endogenous in MDA-MB-231 cells (from UniProt Q05397 1-1052) (enzyme) |
| – | binds | – | – | Flag-PKN3 WT (mouse), expressed in MEFs (from UniProt Q8K045 1-878) (enzyme) |
| binds | – | no binding | binds | PKN3, endogenous in MDA-MB-231 cells (from UniProt Q6P5Z2 1-889) (enzyme) |
